# Source: article PMC6919601, “Identification of Plasmodium dipeptidyl aminopeptidase allosteric inhibitors by high throughput screening” (PLoS ONE, 2019)
# Several values for one entry are separate records, joined by “and”; a condition that tells them apart may be missing. Equal values may be shown once. The whole screen tested about 110,000 compounds, of which about 230 (0.21%) showed an effect of 50% or more. The list shows a part of the results.
# Biological target: DPAP1 (Plasmodium falciparum, UniProt Q8IIJ9)
# Sequence (Q8IIJ9 whole entry, looked up): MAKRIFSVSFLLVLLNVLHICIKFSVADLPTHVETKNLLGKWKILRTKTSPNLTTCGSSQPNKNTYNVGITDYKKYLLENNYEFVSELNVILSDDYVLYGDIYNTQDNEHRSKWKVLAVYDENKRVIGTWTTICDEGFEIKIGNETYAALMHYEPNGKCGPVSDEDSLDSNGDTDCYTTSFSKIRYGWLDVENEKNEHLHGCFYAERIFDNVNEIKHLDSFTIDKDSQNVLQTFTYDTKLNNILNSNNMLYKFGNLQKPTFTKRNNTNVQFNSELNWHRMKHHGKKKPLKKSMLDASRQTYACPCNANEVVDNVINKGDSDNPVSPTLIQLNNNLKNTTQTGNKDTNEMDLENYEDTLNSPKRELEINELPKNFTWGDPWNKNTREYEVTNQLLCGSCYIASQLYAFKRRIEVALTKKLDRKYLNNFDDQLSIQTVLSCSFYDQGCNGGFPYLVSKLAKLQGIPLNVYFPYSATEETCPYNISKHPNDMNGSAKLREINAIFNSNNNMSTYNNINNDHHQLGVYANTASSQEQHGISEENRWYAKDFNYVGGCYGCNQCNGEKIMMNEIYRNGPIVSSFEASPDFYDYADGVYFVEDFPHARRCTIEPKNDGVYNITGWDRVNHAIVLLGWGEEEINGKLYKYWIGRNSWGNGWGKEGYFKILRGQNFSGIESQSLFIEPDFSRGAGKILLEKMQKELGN
# Assay: primary screen, percent inhibition; read by cleavage of a fluorogenic dipeptide substrate; higher = more effect of the substance
# Set-up: species or system P. falciparum D10 trophozoite lysates; single well
# Method: HTS was performed in black 384-well plates. The first and last two columns of each plate contained our negative (DMSO) and positive (10 μM JCP410) controls, and the 20 central columns the test compounds at 10 μM. Compounds were first diluted 50-fold into assay buffer (50 mM sodium acetate, 5 mM MgCl2, 10 mM β-mercaptoethanol, and 0.1% CHAPS, pH 5.5) from a 10 mM DMSO stock plates. One microliter of this 200 μM intermediate stock plate was dispensed into the assay plate. […] After 30 min, the reaction was quenched with 20 μL of 0.5 M acetic acid, and the fluorescent intensity measured at 523 nm (λex = 492 nm) using an Analyst HT multimode plate reader (Molecular Devices).
# 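Note: 30 min substrate incubation versus DMSO and 10 µM JCP410 controls.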
row,SMILES,% Inhibition @ 10 uM
1,CCO/C(O)=C1\C(C)=NC2=C(C(=O)c3ccccc32)C1c1ccc(C)cc1 (stereo not shown),5.55%
2,O=C(CSCC(=O)Nc1ccc2ccccc2c1)Nc1ccccc1,-1.44%
3,CCOCCCNC(=O)C(NC(=O)c1cnccn1)c1ccc(C)cc1 (stereo not shown),-2.04%
4,CC/N=c1\c(NC(=O)c2cccc(C)c2)c(O)oc2ccccc12,0.454%
5,CC(C)(C)C1CC2CC(CO)CC(C1)C2O (stereo not shown),-1.06%
6,Cc1c(CNC(=O)c2cc(-c3ccccc3)nc3ccc(Br)cc23)cnn1C,-2.9%
7,O=C(/C=C/c1ccc(Br)cc1)c1ccco1,-7.23%
8,COc1cc(N2CCCC2)ccc1/C=C1/NC(=O)N(Cc2cccc(C)c2)C1=O,-4.39%
9,CN1CCCN(Cc2cccc(Cl)c2)CC1,-5.41%
10,CC(=O)Nc1c(C)ccc(CNC(=O)COc2cc(C)ccc2C)c1C,-6.05%
11,CCC1CCCCN1CCCNc1nnc2c3ccccc3n(C)c2n1 (stereo not shown),-2.48%
12,Cc1cc(C)c(S(=O)(=O)NCC23C=CC(O2)C2C(=O)N(c4ccccc4)C(=O)C23)c(C)c1 (stereo not shown),1.7%
13,CC(=O)C1=C(NCCc2nc3ccccc3[nH]2)CCCC1=O,-2.19%
14,O=C1c2cccc3cccc(c23)C(=O)N1CC1CCCO1 (stereo not shown),-14.4%
15,O=C(NCc1ccncc1)c1cccs1,5.06%
16,COc1ccccc1CCNC1CC(=O)N(c2ccc(C)cc2)C1=O (stereo not shown),-1.88%
17,COc1cc(C2C3=C(O)CCCC3=NC(C)=C2C(=O)OCc2ccccc2)cc(Br)c1O (stereo not shown),7.24%
18,CCOc1ccc2nc(SC3CCOC3=O)sc2c1 (stereo not shown),-5.53%
19,Cc1ccc(CCNC(=O)CCn2nc(C)c3c(C)n(-c4ccccc4)nc3c2=O)cc1,-4.57%
20,C=CCn1c(COc2cc(C)ccc2C)nc2ccccc21,6.85%
21,COc1ccc(CCNCc2c(C(=O)O)n(Cc3cc(C)ccc3C)c3ccccc23)cc1OC,-1.44%
22,CO/C(O)=C1\C(C)=NC2=C(C(=O)CC(C)(C)C2)C1c1cccc(F)c1 (stereo not shown),-0.807%
23,CC(C)(C)NC(=O)COc1ccc(CNc2ccc3[nH]c(O)nc3c2)cc1,3.56%
24,CCOc1cccc2c1Oc1nc(-c3ccc(F)cc3)nc(O)c1C2,-1.06%
25,N#CCNC(=O)[C@H](COCc1ccccc1)NC(=O)c1ccc(-c2ccccc2Cl)c(Cl)c1,-3.48%

row,SMILES,% Inhibition @ 10 uM
1,COC(=O)C1CC(OCc2ccccc2)C1 (stereo not shown),-4.35%
2,O=c1cccc(-c2cccc3ccccc23)o1,-8.3%
3,O=C1/C(=C\c2ccccc2[N+](=O)[O-])Sc2ccccc21,0.467%
4,COc1cc(N2CCCC2)c(OC)cc1/C=C1/NC(=O)N(Cc2ccccc2F)C1=O,5.31%
5,CCN(CC)CCOC(=O)/C=C(\NC(=O)c1ccccc1)c1ccc(OC)c(OC)c1,3.72%
6,COc1cc2c(cc1OC)C1=C(c3ccccc3C1)N(C)CC2,8.07%
7,Cc1oc2ccc(O)c(CN3CCOCC3)c2c1C(=O)NCc1ccccc1,0.486%
8,CCOc1ccccc1C1C(C#N)=C(N)Oc2[nH]nc(C(C)(C)C)c21 (stereo not shown),-1.44%
9,c1ccc2c(c1)N1CCCN=C1C21CCCCC1,-0.744%
10,Cc1nc2c(c3c1[nH]c1ccccc13)C(=O)CCC2,-3.74%
11,O=C1/C(=C/c2ccc(F)cc2)CCc2ccccc21,8.9%
12,CCn1c(=O)c2sccc2n2c(CCCC(=O)NC3CCN(Cc4ccccc4)CC3)nnc12,-7.48%
13,Cc1c(-c2nsc(NC(=O)c3cccs3)n2)nnn1-c1cc(F)ccc1F,0.747%
14,CCCc1[nH]nc2c1C(c1cccc(OCC(N)=O)c1)C(C#N)=C(N)O2 (stereo not shown),-3.63%
15,COc1ccc(Cl)cc1C1=N/C(=C/c2ccco2)C(=O)O1,4.54%
16,O=C(Nc1ccc(NS(=O)(=O)c2ccc(Cl)cc2)cc1Cl)c1cc(Cl)ccc1O,1.7%
17,O=C(Nc1ccccc1)c1ccccc1N1C(=O)c2ccccc2C1=O,-3.12%
18,COc1ccc(S(=O)(=O)N2CCN(c3ccc(F)cc3)CC2)c(Cl)c1Cl,-3.24%
19,O=C(O)C1C2C=CC(C2)C1C(=O)Nc1cccnc1 (stereo not shown),5.52%
20,CC(C)(C)N(Cc1ccccc1)C(=O)c1ccc(Cl)cc1,-0.216%
21,CC(Cc1ccccc1)N1CCC(=O)C2=C1CCCC2 (stereo not shown),2.6%
22,Cc1nc(OCc2ccccc2)c2ccccc2n1,-3.83%
23,O=C(Nc1nc2ccc(Cl)cc2s1)C1CCCN(S(=O)(=O)c2c[nH]cn2)C1 (stereo not shown),-1.89%
24,Cc1ccc(Nc2nc(-c3ccc(S(=O)(=O)N4CCCCC4)cc3)cs2)cc1Cl,-2.42% and -1.15%
25,COC(=O)C(Cc1ccccc1)NC(=O)c1ccccc1Br (stereo not shown),-0.128%

row,SMILES,% Inhibition @ 10 uM
1,COc1cc(OC)cc(C(=O)Nc2c(C(=O)N3CCN(Cc4ccccc4)CC3)oc3ccccc23)c1,0.623%
2,COc1ccc(C)cc1-n1c(C)cc(/C=C2/C(=N)N3C(=NC2=O)SN=C3S(=O)(=O)C(C)C)c1C,-3.39%
3,CCn1c2ccccc2c2cc(CN(C)C3CCN(C)CC3)ccc21,-0.828%
4,CCSc1nnc(NC(=O)C2=Cc3sc4c(c3CS2)CCCC4)s1,5.54%
5,O=C(NCCc1ccccc1)C(=O)NC1CCCC1,-3.5%
6,N#CCNC(=O)[C@H](Cc1nccs1)NC(=O)c1ccc(-c2ccccc2Cl)cc1,-8.81%
7,Nc1ncn(Cc2ccccc2)c2nc(SCCOc3ccc(Cl)cc3)nc1-2,2.09%
8,O=C1CC(c2ccc(-c3ccccc3)cc2)C2=C(CCCC2=O)N1 (stereo not shown),-1.92%
9,O=C(NCc1ccc2c(c1)OCO2)c1ccc(CN2CC(=O)N3CCCCC3C2=O)cc1 (stereo not shown),2.22%
10,Cc1noc(/C=C/N(C)C)c1S(=O)(=O)N1CCN(C2CCCC2)CC1,4.61%
11,CCOC(=O)N1CCC(NC(=O)CS(=O)Cc2nc(-c3ccc(OC)c(OC)c3)oc2C)CC1 (stereo not shown),2.37%
12,COC(=O)C1=CN(CC23CC4CC(CC(C4)C2)C3)C=C(C(=O)OC)C1c1cccc(F)c1,1.03%
13,c1ccc2[nH]c(C3CCCO3)nc2c1 (stereo not shown),5.29%
14,Cc1ccc2onc(CNC(=O)Nc3cccnc3Cl)c2c1,-0.544%
15,CCN1C(=O)CC(C(=O)Nc2ccccc2)S/C1=N\c1cccc(F)c1 (stereo not shown),-1.57%
16,CC(=O)c1cc(-c2ccccc2)n(CC(=O)N2CCC(N(C)CC3CCCO3)CC2)c1C (stereo not shown),-1.6%
17,Cc1ccccc1NC(=O)c1cnn(-c2ccccc2)c1C,0.709%
18,Cn1cc(NC(=O)Nc2nc3ccccc3s2)c2ccccc2c1=O,0.49%
19,O=C(CNC1CCCCC1)c1ccc(O)c(O)c1,-2.42%
20,COC(=O)c1c(-c2ccc(Cl)cc2)csc1N,5.2%
21,Cc1c(C(=O)NC(C)C)sc2ncn(CC(=O)N3CCCCC3C)c(=O)c12 (stereo not shown),-3.93%
22,O=C(Nc1nc(-c2ccc(F)cc2F)cs1)C1CCCC1,-1.12%
23,COc1ccc(Br)cc1CN1CCN(c2ccccn2)CC1,-10.4%
24,O=S(=O)(c1ccc(-n2cnnn2)cc1)N1CCC(Oc2ccc3c(c2)OCO3)CC1,-1.07%
25,COc1cc2c(cc1NC(=O)c1nn(C)cc1Br)oc1ccccc12,2.64%

row,SMILES,% Inhibition @ 10 uM
1,CCOc1ccc(NC(=O)C2c3ccccc3Oc3ccccc32)cc1,-0.988%
2,CCOc1ccc(C(=O)Nc2cccc(C)n2)cc1Br,-4.39%
3,CCOc1ccc(/C=C2\N=C(c3ccc(C)cc3)OC2=O)cc1,4.35%
4,COc1cccc(Cn2nnc(C(=O)NCc3ccc4c(c3)OCO4)c2N)c1,2.72%
5,O=C(CCc1ccccc1)Nc1ccccc1[N+](=O)[O-],4.22%
6,O=C(O)C1CCCCC1C(=O)NCc1cccs1 (stereo not shown),7.16%
7,CC1CCCC(NC(=O)Cn2cnc3onc(-c4ccc(Cl)cc4)c3c2=O)C1C (stereo not shown),-6.13%
8,O=C(O)c1ccccc1N(Cc1ccccc1)C(=O)c1cccs1,-0.67%
9,Cc1ccc(-c2noc(CN(C(=O)CC(C)(C)C)C(C)C)n2)cc1,-4.94%
10,NS(=O)(=O)c1ccc(CCNS(=O)(=O)c2ccccc2)cc1,4.67%
11,CCc1ccc(OCC(O)CN2CCN(Cc3ccc4c(c3)OCO4)CC2)cc1 (stereo not shown),9.33%
12,Cn1nc(C(=O)N2CCC(C(N)=O)CC2)c2c1-c1ccccc1SC2,6.38%
13,OC[C@H](O)[C@H](O)[C@H](O)[C@H](O)[C@H]1SC(c2ccccc2)=NN1c1ccccc1,-1.32%
14,O=C1NCCNC(=O)c2ccccc2OCCOCCOc2ccccc21,2.13%
15,CCOC(=O)c1c(-c2ccccc2)n2c3c(cccc13)SCC2,4.61%
16,Cc1cccc(CN2CCN(CC(=O)NCc3ccccc3Cl)C2=O)c1,-1.83%
17,Cc1cc(OCc2nc(-c3cccnc3)no2)cc(C)c1Br,-12.5%
18,O=C(COc1ccc([N+](=O)[O-])cc1)Oc1ccc(C(=O)c2ccccc2)cc1,19.6%
19,Cc1ccc(C)c(Cn2c(C)c(CNCC(C)c3ccccc3)c(C(=O)O)c2C)c1 (stereo not shown),-1.92%
20,COc1ccc(C(=O)c2nc3ccccc3n2C(C)C)cc1OC,22.7%
21,CCCC(=O)C1=C(NCCc2ccc(OCC)c(OCC)c2)CCCC1=O,-2.63%
22,O=c1nc2s/c(=C/c3cccc4ccccc34)c(=O)n2nc1Cc1ccc(F)cc1,2.9%
23,CC(=O)c1ccc(N2CCN(Cc3ccc(F)c(Br)c3)CC2)cc1,3.85%
24,COc1ccc(/C=C/c2ccc(OC)c(OC)c2)cc1,-5.46%
25,CCN(CC)CCN(C)Cc1ccc(F)cc1F,1.29%
